In brackets after ≈: the same amount, converted by molar mass.
System: Staphylococcus aureus S13E
Format: cell-based
Conditions: agar dilution

Q: How did the MIC turn out when `CCCCCCCCCCC(=O)N[C@@H](Cc1ccccc1)C(=O)NCCC[C@@H]1NC(=O)CNC(=O)[C@@H](NC(=O)[C@H](CC(=O)O)NC(=O)[C@@H](CC(N)=O)NC(=O)[C@@H](N)Cc2c[nH]c3ccccc23)[C@@H](C)OC(=O)[C@H](CC(=O)c2ccccc2N)NC(=O)[C@H]([C@H](C)CC(=O)O)NC(=O)[C@@H](CO)NC(=O)CNC(=O)[C@H](CC(=O)O)NC(=O)[C@@H](C)NC(=O)[C@H](CC(=O)O)NC1=O` [Compound 26] was run?
A: Its MIC is 16 µg/mL (≈ 8.98 µM).

Q: Which MIC does the source give for `CCC(C)CCCCCCC(=O)N[C@@H](Cc1c[nH]c2ccccc12)C(=O)N[C@@H](CC(N)=O)C(=O)N[C@@H](CC(=O)O)C(=O)N[C@@H]1C(=O)NCC(=O)N[C@@H](CCCNC(=O)CCC(=O)O)C(=O)N[C@@H](CC(=O)O)C(=O)N[C@H](C)C(=O)N[C@@H](CC(=O)O)C(=O)NCC(=O)N[C@H](CO)C(=O)N[C@@H]([C@H](C)CC(=O)O)C(=O)N[C@@H](CC(=O)c2ccccc2N)C(=O)O[C@@H]1C` (some centres unmarked) [Compound 15] here?
A: Its MIC is 2 µg/mL (≈ 1.15 µM).
